Test results: patent publication US20210180049A1 (CHUGAI SEIYAKU KABUSHIKI KAISHA, priority 2013, published 2021)
Where a chain is given by its changes, count along the chain named.

B1: 6RAD2C1-4_42 (antibody)
heavy: EVQLVESGGDLVKPGGGLRLSCAASGFTFSSYTMNWVRQAPGKGLEWVSSISSRSSYASYADSVKGRFTISRDNAKNSLYLQMNSLRAEDTAVYYCARYGRLNSHNWVFDYWGQGTLVTVSS[in this place human IgG1 constant region]
light: QSALTQPPSASGSPGQTVTISCTGTSTDVGFYNYVSWYQQHPGKAPKLMIYQGSKKPSGVPDRFSGSKSGNTASLTVSGLQAEDEADYFCSTRATTKGVLFGGGTKLTVLGQPKAAPSVTLFPPSSEELQANKATLVCLISDFYPGAVTVAWKADSSPVKAGVETTTPSKQSNNKYAASSYLSLTPEQWKSHRSYSCQVTHEGSTVEKTVAPTECS
B2: 6RDL3C5-4_11 (antibody)
heavy: B1 heavy with Y32H, S56G, A58I, S59F, Y99F, R101K, S104H, H105M
light: B1 light with F31T, G53V, K56R, T95I, K97R, L100A
B3: 6RNMSC1-2_F02H49Y: heavy chain SEQ ID NO: 32; light chain SEQ ID NO: 45 (antibody, listed as Homo sapiens, V domains shown)
VH: QVQLVQSGAEVKKPGSSVKVSCKASGGTFSSYAISWVRQAPGQGLEWMGGIIPIFGTANYAQKFQGRVTITADESTSTAYMELSSLRSEDTAVYYCARDAPVVARPRGAFDIWGQGTMVTVSS
VL: [in this place about 100 residues]QFPRTFGQGTKVEIK

What was measured:
[1] = biological target: T1, human IL-6 receptor (hIL-6R) (Homo sapiens, UniProt P08887); assay: SPR (Biacore T200) of ATP/adenosine-dependent antibody clones with immobilized hIL-6R with various small molecules; assay type: binding; settings: 1 mM ATP; hIL-6R immobilized on Sensor chip CM5; antibody as analyte; 25° C., pH 7.4; from plot of equilibrium values against antibody concentration; read-out: Dissociation constant KD
T1 sequence (P08887 20-357 limits assumed): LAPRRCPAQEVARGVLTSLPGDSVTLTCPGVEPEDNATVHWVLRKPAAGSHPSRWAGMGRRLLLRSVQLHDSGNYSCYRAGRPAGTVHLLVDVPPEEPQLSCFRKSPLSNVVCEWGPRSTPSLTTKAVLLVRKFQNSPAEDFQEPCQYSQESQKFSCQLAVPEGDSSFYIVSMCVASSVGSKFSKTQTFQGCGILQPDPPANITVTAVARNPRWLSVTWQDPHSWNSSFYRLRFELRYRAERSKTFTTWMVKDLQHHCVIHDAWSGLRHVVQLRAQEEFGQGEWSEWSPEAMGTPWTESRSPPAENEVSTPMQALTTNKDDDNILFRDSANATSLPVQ
Procedure: Biacore T200 (GE Healthcare) was used to assess various small molecules for their effect on the antigen-antibody reaction between hIL-6R and nine clones of ATP/adenosine-dependent antibody (6RAD2C1-4_001, 6RAD2C1-4_005, 6RAD2C1-4_011, 6RAD2C1-4_026, 6RAD2C1-4_030, 6RAD2C1-4_042, 6RAD2C1-4_076, 6RDL3C1-4_085, and 6RDL3C5-4_011) isolated from a library. The running buffer used was 20 mmol/L ACES, 150 mmol/L NaCl, 0.05% (w/v) Tween20, pH 7.4. The assay was performed at 25° C. hIL-6R was immobilized onto Sensor chip CM5 by amine coupling, and interacted with the antibodies as an analyte for 120 seconds to observe changes in the amount of binding. Antibodies were diluted with the running buffer or the running buffer added with any one of ATP, ADP, AMP, cAMP, and adenosine (ADO). The final concentration of each small molecule was adjusted to 1 mM, and the final concentration of the antibody was adjusted to 1 μM. Meanwhile, under the 1 mM ATP condition, the assay was carried out with a series of stepwise antibody concentrations. The dissociation constant KD (mol/L) of each clone for hIL-6R was calculated from a plot of equilibrium values against antibody concentration. The parameters were calculated using the Biacore T200 Evaluation Software (GE Healthcare).

[2] = SPR (Biacore T200) binding of 6RNMSC1-2_F02 and variants to kynurenine
Procedure: An appropriate amount of protein A (Invitrogen) was immobilized onto Sensor chip CM4 (GE Healthcare) by the amine coupling method. The antibody of interest was captured thereon, and the antigen kynurenine and derivatives thereof were allowed to interact. The running buffer used was 50 mmol/L Tris-HCl, 150 mmol/L NaCl, 0.02% (w/v) Tween 20, 5% DMSO, pH 7.6. All measurements were carried out at 15° C. The antigens were diluted with the running buffer.
Then, the running buffer was run at a flow rate of 30 μL/min for 60 seconds to observe the dissociation of antigens from the antibody. Kinetic parameters, the association rate constant ka (1/Ms) and the dissociation rate constant kd (l/s), were calculated based on the sensorgrams obtained by the measurements. The dissociation constant KD (M) was calculated from these constants. Each parameter was calculated using Biacore T200 Evaluation Software (GE Healthcare).
(§1) Meanwhile, the type of sensor chip immobilized with Protein A was changed to Sensor chip Series S CM3 (GE Healthcare) to measure some of the variants. When kynurenine dissociation was too fast to determine the dissociation rate constant, a dissociation constant KD (M) was calculated by analysis of equilibrium values based on the degree of binding response during the interaction with each antigen (association phase). In this case also, Biacore T200 Evaluation Software (GE Healthcare) was used to calculate the parameters.
as §1
When kynurenine dissociation was too fast to determine the dissociation rate constant, the dissociation constant KD (M) was calculated by analysis of equilibrium values based on the degree of binding response when it is interacted with each antigen (association phase). Also in this case, the Biacore T200 Evaluation Software (GE Healthcare) was used to calculate parameters. […] Each variant and its parental antibody F02h011/F021003 were compared in terms of the KD value for kynurenine.
When kynurenine dissociation was too fast to determine the dissociation rate constant, the dissociation constant KD (M) was calculated by analyzing equilibrium values based on the degree of binding response when it is interacted with each antigen (association phase). […]

Row | Molecule | Kd [1] | kynurenine binding (in words) ([2]; Biacore) | Kd ([2]; Biacore T200, 15° C., 5% DMSO) | ka for kynurenine ([2]; Biacore T200, 15° C., 5% DMSO) | kd for kynurenine ([2]; Biacore T200, 15° C., 5% DMSO)
1 | B1 | 250 nM |  |  |  | 
2 | B2 | 130 nM |  |  |  | 
3 | B3 |  | retained kynurenine binding | 95000 nM | 2543 l/(M·s) | 0.24 L/s
